Measured values from the supplement of paper PMC8728848.
Some of the results follow.

Legend:
Test in all cases: glycan array binding signal (z-score within array); higher = stronger binding
Details in all cases: glycan notation: IUPAC condensed, linker removed
[1] = biological target: Gal(b1-4)GlcNAc(b1-2)Man(a1-6)[Man(a1-3)]Man(b1-4)GlcNAc(b1-4)GlcNAc
Outline: (§1)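 The binding signal is a Z-score computed within each array. Data were drawn from 3228 arrays in the Consortium for Functional Glycomics database, restricted to those with a known protein sequence. Scores were averaged over arrays of the same protein sequence at different concentrations or buffers, and over linkers, and negative values can be taken as non-binding.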

[2] = biological target: Gal(b1-4)GlcNAc(b1-2)[Gal(b1-4)GlcNAc(b1-4)]Man(a1-3)[Gal(b1-4)GlcNAc(b1-2)Man(a1-6)]Man(b1-4)GlcNAc(b1-4)GlcNAc
Outline: as §1

[3] = biological target: Gal(b1-4)GlcNAc(b1-2)[Gal(b1-4)GlcNAc(b1-4)]Man(a1-3)[Gal(b1-4)GlcNAc(b1-2)[Gal(b1-4)GlcNAc(b1-6)]Man(a1-6)]Man(b1-4)GlcNAc(b1-4)GlcNAc
Outline: as §1

[4] = biological target: Gal(b1-4)GlcNAc(b1-2)[Gal(b1-4)GlcNAc(b1-4)]Man(a1-3)[GlcNAc(b1-4)][Gal(b1-4)GlcNAc(b1-2)Man(a1-6)]Man(b1-4)GlcNAc(b1-4)GlcNAc
Outline: as §1

[5] = biological target: Gal(b1-4)GlcNAc(b1-2)[Gal(b1-4)GlcNAc(b1-4)]Man(a1-3)[GlcNAc(b1-4)][Gal(b1-4)GlcNAc(b1-2)[Gal(b1-4)GlcNAc(b1-6)]Man(a1-6)]Man(b1-4)GlcNAc(b1-4)GlcNAc
Outline: as §1

[6] = biological target: Gal(b1-4)GlcNAc(b1-2)[Gal(b1-4)GlcNAc(b1-6)]Man(a1-6)[Gal(b1-4)GlcNAc(b1-2)Man(a1-3)]Man(b1-4)GlcNAc(b1-4)GlcNAc
Outline: as §1

[7] = biological target: Gal(b1-4)GlcNAc(b1-2)[Gal(b1-4)GlcNAc(b1-6)]Man(a1-6)[Gal(b1-4)GlcNAc(b1-2)Man(a1-3)]Man(b1-4)GlcNAc(b1-4)[Fuc(a1-6)]GlcNAc
Outline: as §1

[8] = biological target: Gal(b1-4)GlcNAc(b1-2)[Gal(b1-4)GlcNAc(b1-6)]Man(a1-6)[GlcNAc(b1-4)][Gal(b1-4)GlcNAc(b1-2)Man(a1-3)]Man(b1-4)GlcNAc(b1-4)GlcNAc
Outline: as §1

[9] = biological target: Gal(b1-4)GlcNAc(b1-2)[Gal(b1-4)GlcNAc(b1-6)]Man(a1-6)[GlcNAc(b1-4)][Gal(b1-4)GlcNAc(b1-2)[Gal(b1-4)GlcNAc(b1-4)]Man(a1-3)]Man(b1-4)GlcNAc(b1-4)[Fuc(a1-6)]GlcNAc
Outline: as §1

[10] = biological target: Gal(b1-4)GlcNAc(b1-3)Gal(b1-3)GalNAc
Outline: as §1

[11] = biological target: Gal(b1-4)GlcNAc(b1-3)Gal(b1-3)GlcNAc
Outline: as §1

[12] = biological target: Gal(b1-4)GlcNAc(b1-3)Gal(b1-4)Glc
Outline: as §1

[13] = biological target: Gal(b1-4)GlcNAc(b1-3)Gal(b1-4)GlcNAc
Outline: as §1

[14] = biological target: Gal(b1-4)GlcNAc(b1-3)Gal(b1-4)GlcNAc(b1-2)Man(a1-3)[Gal(b1-4)GlcNAc(b1-3)Gal(b1-4)GlcNAc(b1-2)Man(a1-6)]Man(b1-4)GlcNAc(b1-4)GlcNAc
Outline: as §1

[15] = biological target: Gal(b1-4)GlcNAc(b1-3)Gal(b1-4)GlcNAc(b1-2)Man(a1-3)[Gal(b1-4)GlcNAc(b1-3)Gal(b1-4)GlcNAc(b1-2)Man(a1-6)]Man(b1-4)GlcNAc(b1-4)[Fuc(a1-6)]GlcNAc
Outline: as §1

[16] = biological target: Gal(b1-4)GlcNAc(b1-3)Gal(b1-4)GlcNAc(b1-2)[Gal(b1-4)GlcNAc(b1-3)Gal(b1-4)GlcNAc(b1-6)]Man(a1-6)[Gal(b1-4)GlcNAc(b1-3)Gal(b1-4)GlcNAc(b1-2)Man(a1-3)]Man(b1-4)GlcNAc(b1-4)GlcNAc
Outline: as §1

[17] = biological target: Gal(b1-4)GlcNAc(b1-3)Gal(b1-4)GlcNAc(b1-2)[Gal(b1-4)GlcNAc(b1-3)Gal(b1-4)GlcNAc(b1-6)]Man(a1-6)[Gal(b1-4)GlcNAc(b1-3)Gal(b1-4)GlcNAc(b1-2)Man(a1-3)]Man(b1-4)GlcNAc(b1-4)[Fuc(a1-6)]GlcNAc
Outline: as §1

[18] = biological target: Gal(b1-4)GlcNAc(b1-3)Gal(b1-4)GlcNAc(b1-3)Gal(b1-4)GlcNAc
Outline: as §1

[19] = biological target: Gal(b1-4)GlcNAc(b1-3)Gal(b1-4)GlcNAc(b1-3)Gal(b1-4)GlcNAc(b1-2)Man(a1-3)[Gal(b1-4)GlcNAc(b1-3)Gal(b1-4)GlcNAc(b1-3)Gal(b1-4)GlcNAc(b1-2)Man(a1-6)]Man(b1-4)GlcNAc(b1-4)GlcNAc
Outline: as §1

[20] = biological target: Gal(b1-4)GlcNAc(b1-3)Gal(b1-4)GlcNAc(b1-3)Gal(b1-4)GlcNAc(b1-2)Man(a1-3)[Gal(b1-4)GlcNAc(b1-3)Gal(b1-4)GlcNAc(b1-3)Gal(b1-4)GlcNAc(b1-2)Man(a1-6)]Man(b1-4)GlcNAc(b1-4)[Fuc(a1-6)]GlcNAc
Outline: as §1

[21] = biological target: Gal(b1-4)GlcNAc(b1-3)Gal(b1-4)GlcNAc(b1-3)Gal(b1-4)GlcNAc(b1-2)[Gal(b1-4)GlcNAc(b1-3)Gal(b1-4)GlcNAc(b1-3)Gal(b1-4)GlcNAc(b1-6)]Man(a1-6)[Gal(b1-4)GlcNAc(b1-3)Gal(b1-4)GlcNAc(b1-3)Gal(b1-4)GlcNAc(b1-2)Man(a1-3)]Man(b1-4)GlcNAc(b1-4)[Fuc(a1-6)]GlcNAc
Outline: as §1

[22] = biological target: Gal(b1-4)GlcNAc(b1-3)Gal(b1-4)GlcNAc(b1-3)Gal(b1-4)GlcNAc(b1-3)Gal(b1-4)GlcNAc(b1-2)Man(a1-3)[Gal(b1-4)GlcNAc(b1-3)Gal(b1-4)GlcNAc(b1-3)Gal(b1-4)GlcNAc(b1-3)Gal(b1-4)GlcNAc(b1-2)Man(a1-6)]Man(b1-4)GlcNAc(b1-4)GlcNAc
Outline: as §1

[23] = biological target: Gal(b1-4)GlcNAc(b1-3)Gal(b1-4)GlcNAc(b1-3)Gal(b1-4)GlcNAc(b1-3)Gal(b1-4)GlcNAc(b1-2)Man(a1-3)[Gal(b1-4)GlcNAc(b1-3)Gal(b1-4)GlcNAc(b1-3)Gal(b1-4)GlcNAc(b1-3)Gal(b1-4)GlcNAc(b1-2)Man(a1-6)]Man(b1-4)GlcNAc(b1-4)[Fuc(a1-6)]GlcNAc
Outline: as §1

[24] = biological target: Gal(b1-4)GlcNAc(b1-3)Gal(b1-4)GlcNAc(b1-3)Gal(b1-4)GlcNAc(b1-3)Gal(b1-4)GlcNAc(b1-2)[Gal(b1-4)GlcNAc(b1-3)Gal(b1-4)GlcNAc(b1-3)Gal(b1-4)GlcNAc(b1-3)Gal(b1-4)GlcNAc(b1-6)]Man(a1-6)[Gal(b1-4)GlcNAc(b1-3)Gal(b1-4)GlcNAc(b1-3)Gal(b1-4)GlcNAc(b1-3)Gal(b1-4)GlcNAc(b1-2)Man(a1-3)]Man(b1-4)GlcNAc(b1-4)[Fuc(a1-6)]GlcNAc
Outline: as §1

[25] = biological target: Gal(b1-4)GlcNAc(b1-3)Gal(b1-4)GlcNAc(b1-3)Gal(b1-4)GlcNAc(b1-3)Gal(b1-4)GlcNAc(b1-3)Gal(b1-4)GlcNAc(b1-2)Man(a1-3)[Gal(b1-4)GlcNAc(b1-3)Gal(b1-4)GlcNAc(b1-3)Gal(b1-4)GlcNAc(b1-3)Gal(b1-4)GlcNAc(b1-3)Gal(b1-4)GlcNAc(b1-2)Man(a1-6)]Man(b1-4)GlcNAc(b1-4)GlcNAc
Outline: as §1

[26] = biological target: Gal(b1-4)GlcNAc(b1-3)Gal(b1-4)GlcNAc(b1-3)Gal(b1-4)GlcNAc(b1-3)Gal(b1-4)GlcNAc(b1-3)Gal(b1-4)GlcNAc(b1-2)Man(a1-3)[Gal(b1-4)GlcNAc(b1-3)Gal(b1-4)GlcNAc(b1-3)Gal(b1-4)GlcNAc(b1-3)Gal(b1-4)GlcNAc(b1-3)Gal(b1-4)GlcNAc(b1-2)Man(a1-6)]Man(b1-4)GlcNAc(b1-4)[Fuc(a1-6)]GlcNAc
Outline: as §1

[27] = biological target: Gal(b1-4)GlcNAc(b1-3)Gal(b1-4)GlcNAc(b1-3)Gal(b1-4)GlcNAc(b1-3)Gal(b1-4)GlcNAc(b1-3)Gal(b1-4)GlcNAc(b1-2)[Gal(b1-4)GlcNAc(b1-3)Gal(b1-4)GlcNAc(b1-3)Gal(b1-4)GlcNAc(b1-3)Gal(b1-4)GlcNAc(b1-3)Gal(b1-4)GlcNAc(b1-6)]Man(a1-6)[Gal(b1-4)GlcNAc(b1-3)Gal(b1-4)GlcNAc(b1-3)Gal(b1-4)GlcNAc(b1-3)Gal(b1-4)GlcNAc(b1-3)Gal(b1-4)GlcNAc(b1-2)Man(a1-3)]Man(b1-4)GlcNAc(b1-4)[Fuc(a1-6)]GlcNAc
Outline: as §1

[28] = biological target: Gal(b1-4)GlcNAc(b1-3)Gal(b1-4)GlcNAc(b1-3)Gal(b1-4)GlcNAc(b1-3)Gal(b1-4)GlcNAc(b1-3)Gal(b1-4)GlcNAc(b1-3)Gal(b1-4)GlcNAc(b1-2)Man(a1-3)[Gal(b1-4)GlcNAc(b1-3)Gal(b1-4)GlcNAc(b1-3)Gal(b1-4)GlcNAc(b1-3)Gal(b1-4)GlcNAc(b1-3)Gal(b1-4)GlcNAc(b1-3)Gal(b1-4)GlcNAc(b1-2)Man(a1-6)]Man(b1-4)GlcNAc(b1-4)GlcNAc
Outline: as §1

[29] = biological target: Gal(b1-4)GlcNAc(b1-3)Gal(b1-4)GlcNAc(b1-3)GalNAc
Outline: as §1

[30] = biological target: Gal(b1-4)GlcNAc(b1-3)Gal(b1-4)GlcNAc(b1-3)[Gal(b1-4)GlcNAc(b1-3)Gal(b1-4)GlcNAc(b1-6)]GalNAc
Outline: as §1

[31] = biological target: Gal(b1-4)GlcNAc(b1-3)Gal(b1-4)GlcNAc(b1-6)[Gal(b1-3)]GalNAc
Outline: as §1

[32] = biological target: Gal(b1-4)GlcNAc(b1-3)Gal(b1-4)[Fuc(a1-3)]GlcNAc(b1-3)Gal(b1-4)[Fuc(a1-3)]GlcNAc
Outline: as §1

[33] = biological target: Gal(b1-4)GlcNAc(b1-3)GalNAc
Outline: as §1

[34] = biological target: Gal(b1-4)GlcNAc(b1-3)[Fuc(a1-3)GlcNAc(b1-6)]Gal(b1-4)Glc
Outline: as §1

[35] = biological target: Gal(b1-4)GlcNAc(b1-3)[Gal(b1-4)GlcNAc(b1-6)]Gal(b1-4)GlcNAc
Outline: as §1

[36] = biological target: Gal(b1-4)GlcNAc(b1-3)[GlcNAc(b1-6)]Gal(b1-4)GlcNAc
Outline: as §1

[37] = biological target: Gal(b1-4)GlcNAc(b1-6)Gal(b1-4)GlcNAc
Outline: as §1

B1: PNGase F (Flavobacterium meningosepticum) (protein)
chain: GIPAPADNTVNIKTFDKVKNAFGDGLSQSAEGTFTFPADVTAVKTIKMFIKNECPNKTCDEWDRYANVYVKNKTTGEWYEIGRFITPYWVGTEKLPRGLEIDVTDFKSLLSGNTELKIYTETWLAKGREYSVDFDIVYGTPDYKYSAVVPVVQYNKSSIDGVPYGKAHTLALKKNIQLPTNTEKAYLRTTISGWGHAKPYDAGSRGCAEWCFRTHTIAINNSNTFQHQLGALGCSANPINNQSPGNWTPDRAGWCPGMAVPTRIDVLNNSLIGSTFSYEYKFQNWTNNGTNGDAFYAISSFVIAKSNTPISAPVVTNLDPHHHHHH
glycan array binding signal (z-score) [1]: -0.294 | glycan array binding signal (z-score) [2]: -0.043 | glycan array binding signal (z-score) [3]: -0.349 | glycan array binding signal (z-score) [4]: -0.271 | glycan array binding signal (z-score) [5]: -0.285 | glycan array binding signal (z-score) [6]: -0.257 | glycan array binding signal (z-score) [7]: -0.471 | glycan array binding signal (z-score) [8]: -0.459 | glycan array binding signal (z-score) [9]: -0.54 | glycan array binding signal (z-score) [10]: -0.329 | glycan array binding signal (z-score) [11]: 0.045 | glycan array binding signal (z-score) [12]: 0.271 | glycan array binding signal (z-score) [13]: -0.411 | glycan array binding signal (z-score) [14]: 0.135 | glycan array binding signal (z-score) [15]: -0.253 | glycan array binding signal (z-score) [16]: 1.63 | glycan array binding signal (z-score) [17]: -0.11 | glycan array binding signal (z-score) [18]: -0.342 | glycan array binding signal (z-score) [19]: 0.002 | glycan array binding signal (z-score) [20]: 0.156 | glycan array binding signal (z-score) [21]: -0.178 | glycan array binding signal (z-score) [22]: -0.24 | glycan array binding signal (z-score) [23]: -0.287 | glycan array binding signal (z-score) [24]: -0.301 | glycan array binding signal (z-score) [25]: -0.215 | glycan array binding signal (z-score) [26]: 0.136 | glycan array binding signal (z-score) [27]: -0.305 | glycan array binding signal (z-score) [28]: -0.299 | glycan array binding signal (z-score) [29]: -0.212 | glycan array binding signal (z-score) [30]: -0.122 | glycan array binding signal (z-score) [31]: -0.167 | glycan array binding signal (z-score) [32]: -0.23 | glycan array binding signal (z-score) [33]: -0.281 | glycan array binding signal (z-score) [34]: -0.214 | glycan array binding signal (z-score) [35]: -0.219 | glycan array binding signal (z-score) [36]: 1.78 | glycan array binding signal (z-score) [37]: -0.044
